Measured values reported in PubChem BioAssay AID1458 (National Center for Advancing Translational Sciences (NCATS), 2008).
Among all 210,000 compounds or so, about 5,900 (2.8%) were called active. Inconclusive means that the source gave no clear call. Such entries were picked first, then a sample of the others. The call rests on the fitted dose curve; in most records, active means well fitted activation curve with a large enough effect; inconclusive means small, poorly fitted or top-dose-only effect; inactive means no such curve, though single readings can be large or run the other way. Where the call is inconclusive, the potency comes from a doubtful curve fit.

Assay: qHTS Assay for Enhancers of SMN2 Splice Variant Expression; further: nearly all actives have a fitted effect of over 55% in size; on activity change, positive = activation: % of control where 0% means no effect
Settings: HEK293 SMN2-luciferase splicing reporter, luminescence, 30-36 h; activity change, positive = activation: at 46.1 µM (top of the series)
Summary of the method: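 HEK293 cells carry an SMN2 minigene-luciferase reporter in which exon 7 inclusion puts luciferase in frame. Cells were seeded at 2000 cells/well, attached for 10-12 hours, then exposed to compounds for 30-36 hours at 37C before ONE-Glo luminescence.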
Potency means the concentration at half of the fitted maximal effect; tags describe the fitted curve by direction and shape.

Row | SMILES | activity change, positive = activation | Potency
1 | COc1ccc(CCNC(=O)c2ccc(Cn3c(=O)c4ccccc4n(Cc4ccc(C)cc4)c3=O)cc2)cc1OC | inactive: -6.4% | 
2 | C=CCc1cc(C)ccc1OCCOCCC(C(=O)OCC)C(=O)OCC |  | inconclusive: 5.62 µM [activator, single point]
3 | CC(C)NC(=O)CSc1nc(-c2ccccc2)cs1 |  | inconclusive: 35.5 µM [activator, single point]
4 | [O-]/[N+](=C\c1ccc(OC(F)F)cc1)c1ccccc1 | inactive: -0.644% | 
5 | O=C(c1ccc(S(=O)(=O)Cc2ccccc2F)c([N+](=O)[O-])c1)N1CCCC1 |  | inconclusive: 35.5 µM [activator, single point]
6 | Cc1cc(C)cc(N2C(=O)CC(n3nc(C)cc3C)C2=O)c1 (stereo unspecified) |  | inconclusive: 31.6 µM [activator, single point]
7 | Cc1cc(C)n(CC(=O)O)n1 | inactive: -2.61% | 
8 | Cn1nnnc1SCC(=O)N1CCN(Cc2ccccc2)CC1 |  | inconclusive: 0.0398 µM [activator, full curve, poor fit]
9 | CCCCCOc1ccc(CSc2ncn[nH]2)cc1 |  | active: 11.2 µM
10 | CCc1ccc2c(c1)CCCN2C(=O)c1ccccc1C(=O)O |  | inconclusive: 35.5 µM [activator, partial curve]
11 | COc1ccc(-c2cc(C(=O)Nc3ccccc3F)on2)cc1 |  | inconclusive: 31.6 µM [activator, single point]
12 | COc1ccc(N=Cc2c(O)[nH]c3ccccc23)cc1OC |  | active: 14.1 µM
13 | CCOc1c(OC(C)=O)ccc(/C=C/c2ccc3cccc(OC)c3n2)c1[N+](=O)[O-] |  | inconclusive: 8.91 µM [activator, single point]
14 | CC(=O)c1c(C)[nH]c(C(=O)N(C)C(c2ccccc2)c2ccccc2)c1C | inactive: -1.12% | 
15 | O=C(COc1ccccc1)NCC(=O)N/N=C/c1ccco1 |  | inconclusive: 4.47 µM [activator, single point]
16 | Cc1cc2nc(C)c(=O)n(C)c2cc1C |  | inconclusive: 10 µM [activator, partial curve, poor fit]
17 | O=C(Oc1ccc(C(=S)N2CCC(O)CC2)cc1)c1ccc(Cl)cc1 | inactive: 3.23% | 
18 | CC(C)c1ccc(/C=N/N2CCCCC2)cc1 |  | inconclusive: 11.2 µM [activator, partial curve]
19 | Nc1scc(-c2ccncc2)c1Cl |  | inconclusive: 35.5 µM [activator, single point]
20 | Nc1nc2ccccc2n1C(=O)c1cccs1 |  | active: 11.2 µM
21 | CC(C)CNC(=O)C1CCN(Cc2ccc(OCc3ccccc3)cc2)CC1 |  | inconclusive: 7.94 µM [activator, partial curve, poor fit]
